This is an account of results in paper PMC4336329 (PLoS ONE, 2015).

Screen size: about 310,000 compounds; about 14,000 (4.5%) showed an effect of 50% or more. Effects have a minus sign here. Some of the results follow.
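Further: peak tail current of the secondary pulse compared with the same well before compound.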

In the experiment the target is human ether-à-go-go-related gene (hERG) potassium channel (human, UniProt Q12809). The experiment in a line: primary screen, population patch clamp on CHO cells stably expressing hERG.
Chain of human ether-à-go-go-related gene (hERG) potassium channel (Q12809 whole entry, looked up): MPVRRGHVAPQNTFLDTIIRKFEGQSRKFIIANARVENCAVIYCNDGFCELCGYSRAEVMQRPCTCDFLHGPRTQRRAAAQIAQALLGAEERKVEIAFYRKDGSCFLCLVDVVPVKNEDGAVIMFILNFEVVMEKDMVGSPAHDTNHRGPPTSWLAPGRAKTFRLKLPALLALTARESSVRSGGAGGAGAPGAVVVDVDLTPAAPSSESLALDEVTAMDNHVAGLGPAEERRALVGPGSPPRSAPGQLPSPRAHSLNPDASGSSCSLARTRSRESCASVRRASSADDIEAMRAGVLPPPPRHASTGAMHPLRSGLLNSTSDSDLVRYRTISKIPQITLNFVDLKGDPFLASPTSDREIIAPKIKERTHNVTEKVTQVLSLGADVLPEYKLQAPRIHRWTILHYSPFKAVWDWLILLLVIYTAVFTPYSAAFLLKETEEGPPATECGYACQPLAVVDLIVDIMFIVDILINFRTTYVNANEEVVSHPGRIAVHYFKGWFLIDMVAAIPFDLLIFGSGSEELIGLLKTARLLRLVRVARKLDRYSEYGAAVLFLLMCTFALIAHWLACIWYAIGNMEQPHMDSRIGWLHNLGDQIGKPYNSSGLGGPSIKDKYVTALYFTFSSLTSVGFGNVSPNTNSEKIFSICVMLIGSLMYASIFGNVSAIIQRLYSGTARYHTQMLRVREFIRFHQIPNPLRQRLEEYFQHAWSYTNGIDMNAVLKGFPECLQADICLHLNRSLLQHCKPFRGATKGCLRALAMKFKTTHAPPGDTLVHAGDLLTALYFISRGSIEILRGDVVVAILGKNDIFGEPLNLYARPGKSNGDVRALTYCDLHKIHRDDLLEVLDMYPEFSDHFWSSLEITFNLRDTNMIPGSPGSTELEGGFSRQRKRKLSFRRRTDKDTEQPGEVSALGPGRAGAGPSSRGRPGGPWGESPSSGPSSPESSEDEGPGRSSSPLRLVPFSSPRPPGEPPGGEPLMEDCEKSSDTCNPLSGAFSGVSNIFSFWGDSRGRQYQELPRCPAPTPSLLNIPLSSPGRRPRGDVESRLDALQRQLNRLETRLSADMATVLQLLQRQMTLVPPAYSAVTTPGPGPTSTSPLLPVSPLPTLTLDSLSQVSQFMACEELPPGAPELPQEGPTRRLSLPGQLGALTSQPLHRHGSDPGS
With `O=C(N/N=C1\NC(=O)C(CO)(CO)S1)c1ccccc1`, the “hERG current change (%, negative = inhibition) at 10uM” value is reported as -4.47%.
On to `Cc1cc(N2CCOCC2)nc(N)n1`, for which the “hERG current change (%, negative = inhibition) at 10uM” value turned out to be 20.9%.
As for `O=C(O)COc1ccc(NC(=O)c2cccs2)cc1`, the figure is 12.7%; as for `CCN(CC)c1nc(Oc2ccc(C(=O)OC)cc2)nc(N2CCOCC2)n1`, -24.3%; as for `COc1cccc(OC)c1C(=O)Nc1ccc(N2CCN(C(=O)c3cccs3)CC2)cc1`, -0.0943%.
As for `CCOC(=O)C1CCCN(C(=O)c2cccc(NC(=O)C(CC)CC)c2)C1` (stereo not shown), the figure is 18.7%; as for `CCCCn1c(SCC(=O)NC2CCS(=O)(=O)C2)nnc1-c1ccc(OC)cc1` (stereo not shown), -4.68%.
In the case of `CC(C)(C)c1ccc(C(=O)C2CCCN(C(=O)C3CCOCC3)C2)cc1` (stereo not shown), the “hERG current change (%, negative = inhibition) at 10uM” value is recorded as -7.14%.
As for `O=C(NC(NC1CCS(=O)(=O)C1)C(=O)c1cccs1)c1ccccc1` (stereo not shown), the figure is -1.01%.
In the case of `CC(CN1CCCCC1)C(=O)NNC(=O)C12CC3CC(CC(C3)C1)C2` (stereo not shown) it was 3.74%; in that of `CCOC(=O)N1CCN(C(=O)c2cc3c(=O)[nH]c4ccccc4c3s2)CC1`, 4.32%.
As for `O=C(NCC1COc2ccccc2O1)c1cccc(S(=O)(=O)N2CCCCC2)c1` (stereo not shown), the figure is -25.7%.
On to `Cc1cc(NC(=O)CSc2nnc(-c3ccco3)n2Cc2ccccc2)no1`, for which the “hERG current change (%, negative = inhibition) at 10uM” value is reported as -44.3%.
`CC(=O)Nc1ccc(S(=O)(=O)Nc2c(C)nn(-c3ccccc3)c2C)cc1`: the “hERG current change (%, negative = inhibition) at 10uM” value is on record as -7.68%.
As for `Cc1ccc2cc(S(=O)(=O)NCCCN3CCOCC3)ccc2c1`, the figure is -19.4%.
As for `CCCN(CC1CC1)C(=O)CSc1nnc(-c2ccco2)n1N`, the figure is -21.2%; as for `O=C(N/N=C/c1ccc(Sc2nc3ccccc3[nH]2)o1)c1ccncc1`, 5.7%.
As for `CCOC(=O)c1cn(CC#N)c2cc(F)c(F)cc2c1=O`, the figure is 10%.
Turning to `CC1(C)CC(=O)C(C(=O)C2CCN(S(=O)(=O)c3ccccc3)CC2)C(=O)C1`, the “hERG current change (%, negative = inhibition) at 10uM” value was 3.17%.
`O=C(Cc1cscn1)c1ccc(O)cc1O`: the “hERG current change (%, negative = inhibition) at 10uM” value is reported as -9.71%.
For `O=C1COc2ccc(C(=O)COc3ccc(Cl)cc3Br)cc2N1`, the “hERG current change (%, negative = inhibition) at 10uM” value is reported as -15.6%.
As for `Cc1cc(NC(=O)CCC(=O)N(c2ccccc2F)C(C(=O)NC2CCCC2)c2ccccc2)no1` (stereo not shown), the figure is 25.6%.
As for `Oc1ccccc1C(=S)N1CCCCCC1`, the figure is 9.43%; as for `Cc1ccc(NC(=O)c2cccc(N3C(=O)C4C5CCC(C5)C4C3=O)c2)c(C)c1` (stereo not shown), 15%.
As for `O=c1oc2ccccc2cc1-c1nc2ccccc2o1`, the figure is -12.6%.
